{"source": "PubChem BioAssay AID2675", "about": "(National Center for Advancing Translational Sciences (NCATS), 2010)", "note": "The whole screen tested about 280,000 compounds, of which about 100 (0.036%) were called active. Inconclusive results, whose numbers are uncertain, are shown with a selection of clear calls. The call rests on the fitted dose curve; in most records, active means well fitted inhibition curve with a large enough effect in the signal ratio, with a control signal flat (not every such curve was filed as active); inconclusive means small, poorly fitted or top-dose-only effect, or effect the other way, or a change in a side signal; inactive means no such curve, though single readings can be large or run the other way; the % refers to the signal ratio. Potencies of inconclusive entries are doubtful fits and often do not repeat. A note “side channel” means that the fit belongs to a control or component signal, not to the main read-out. On the % scale 0 is the no-effect control and ±100 the full control effect; potency means the concentration at half of the fitted maximal effect; tags describe the fitted curve by direction and shape or compound fluorescence and quenching."}
{"target": "Muscleblind-like protein 1 (Homo sapiens) (UniProt Q9NR56)", "sequence (Q9NR56 whole entry, looked up)": "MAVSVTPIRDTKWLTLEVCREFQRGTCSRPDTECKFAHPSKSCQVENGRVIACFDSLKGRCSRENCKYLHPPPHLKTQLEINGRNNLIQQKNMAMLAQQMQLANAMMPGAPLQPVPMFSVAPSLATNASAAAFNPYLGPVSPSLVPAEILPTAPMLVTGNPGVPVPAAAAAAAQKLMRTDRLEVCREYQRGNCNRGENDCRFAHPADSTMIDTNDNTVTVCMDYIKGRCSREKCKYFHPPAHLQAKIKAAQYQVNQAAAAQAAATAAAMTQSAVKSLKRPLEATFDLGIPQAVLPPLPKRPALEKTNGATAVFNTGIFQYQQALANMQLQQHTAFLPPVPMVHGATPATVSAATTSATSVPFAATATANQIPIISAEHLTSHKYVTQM", "assay": "qHTS Assay for Inhibitors of MBNL1-poly(CUG) RNA binding", "conditions": "TR-FRET MBNL1-His/biotin-(CUG)12 binding, 665/545 ratio; activity change, negative = inhibition: at 57.5 µM (top of the series)", "procedure,_shortened": "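TR-FRET readout: Ex 340 nm, 665/545 nm emission ratio, normalized to buffer-only (basal) and MBNL1-(CUG)12 controls. Complex of MBNL1-His with Biotin-(CUG)12, compounds 92 nM–58 uM, incubated 60 min at room temperature.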"}
{"smiles": "O=C(Nc1cccc(-c2cnc3ccccc3n2)c1)c1ccco1", "Potency": "inconclusive: 3.98 µM [quencher, side channel, full curve]"}
{"smiles": "O=S(=O)(c1ccc(N2CCOCC2)nc1)N1CCOCC1", "activity change, negative = inhibition": "inactive: -0.627%"}
{"smiles": "O=C(O)c1ccc(N=NNc2cccc([N+](=O)[O-])c2)cc1", "Potency": "inconclusive: 11.2 µM [quencher, side channel, partial curve]"}
{"smiles": "O=c1cc(-c2ccccc2)nc2c(-c3ccccc3)c(C(F)(F)F)[nH]n12", "activity change, negative = inhibition": "inactive: -5.48%"}
{"smiles": "O=C(c1cccc([N+](=O)[O-])c1)c1ccccn1", "Potency": "inconclusive: 11.2 µM [quencher, side channel, partial curve]"}
{"smiles": "O=C(CCN1C(=O)S/C(=C/c2ccc(F)cc2)C1=O)Nc1ccc(O)c(C(=O)O)c1", "Potency": "inconclusive: 15.8 µM [quencher, side channel, partial curve]"}
{"smiles": "Cc1ccc(N=Cc2c(C)[nH]n(-c3ccccc3)c2=O)nc1", "Potency": "inconclusive: 25.1 µM [quencher, side channel, single point]"}
{"smiles": "COC(=O)c1ccc(-n2cncn2)c([N+](=O)[O-])c1", "Potency": "inconclusive: 7.94 µM [quencher, partial curve]"}
{"smiles": "CCOC(=O)c1[nH]c2ccc(OC)cc2c1NC(=O)C(C)N1CCC2(CC1)OCCO2", "note": "(stereo unspecified)", "Potency": "inconclusive: 22.4 µM [quencher, side channel, partial curve]"}
{"smiles": "COC(=O)N/N=C/c1ccc(-c2ccc(Cl)c(Cl)c2)o1", "Potency": "inconclusive: 25.1 µM [quencher, side channel, partial curve]"}
{"smiles": "CCOC(=O)N1CCN(S(=O)(=O)c2cccc3nonc23)CC1", "Potency": "inconclusive: 12.6 µM [quencher, side channel, partial curve]"}
{"smiles": "COc1cccc(-c2csc(N3CCN(C(=O)Nc4ccccc4Cl)CC3)n2)c1", "activity change, negative = inhibition": "inactive: 4.71%"}
{"smiles": "CCOC(=O)N/N=C/C=C/c1ccccc1[N+](=O)[O-]", "Potency": "inconclusive: 12.6 µM [quencher, side channel, partial curve]"}
{"smiles": "O=[N+]([O-])c1ccc(-c2cnc(NO)nc2)cc1", "Potency": "inconclusive: 5.01 µM [quencher, side channel, partial curve]"}
{"smiles": "CCOc1ccccc1/C=C/C(=O)c1ccc(Cl)cc1", "Potency": "inconclusive: 39.8 µM [quencher, side channel, single point]"}
{"smiles": "CCOc1cc(/C=C2/N=C(C)C(C(=O)OC)=C2O)ccc1O", "Potency": "inconclusive: 39.8 µM [quencher, side channel, single point]"}
{"smiles": "O=C(O)/C(=C\\c1ccc(Cl)c([N+](=O)[O-])c1)c1ccc(S(=O)(=O)N2CCCCC2)s1", "activity change, negative = inhibition": "inactive: -0.176%"}
{"smiles": "Cn1c(=O)c2c(ncn2CC(=O)OCC(=O)Nc2cc(Cl)ccc2Cl)n(C)c1=O", "Potency": "inconclusive: 0.0794 µM [fluorescent, side channel, full curve, poor fit]"}
{"smiles": "COC(=O)c1ccc(C(=O)OC)c(NC(=O)C(C)(C)C)c1", "Potency": "inconclusive: 39.8 µM [fluorescent, single point]"}
{"smiles": "CCOC(=O)C1=C(N)n2c(s/c(=C\\c3ccco3)c2=O)=C(C(=O)OC(C)C)C1c1ccco1", "note": "(stereo unspecified)", "Potency": "inconclusive: 14.1 µM [fluorescent, side channel, partial curve, poor fit]"}
{"smiles": "Cn1c(SC(C(=O)Nc2ccc(F)cc2)c2ccccc2)nc2ccccc21", "note": "(stereo unspecified)", "Potency": "inconclusive: 1.58 µM [fluorescent, side channel, full curve, poor fit]"}
{"smiles": "O=C(CCc1[nH]c2ccccc2c1Sc1ccccc1)NCCO", "Potency": "inconclusive: 7.08 µM [fluorescent, side channel, full curve, poor fit]"}
{"smiles": "Cc1cccc(-c2cc3nc4c(c(N5CCOCC5)n3n2)CCCC4)c1", "activity change, negative = inhibition": "inactive: 0.476%"}
{"smiles": "Cc1cc(NC(=O)c2cccs2)ncc1NC(=O)C(C)C", "activity change, negative = inhibition": "inactive: -9.4%"}
{"smiles": "CCOc1ccc(C(=O)OCC(=O)Nc2cc(C)on2)cc1OCC", "Potency": "inconclusive: 39.8 µM [fluorescent, single point]"}
{"smiles": "O=C(c1cc([N+](=O)[O-])cc([N+](=O)[O-])c1)N(c1ccccn1)c1ccccn1", "Potency": "inconclusive: 6.31 µM [quencher, side channel, partial curve]"}
{"smiles": "COC(=O)c1c(NC(=O)c2ccco2)sc2c1CCN(C(C)C)C2", "Potency": "inconclusive: 10 µM [quencher, side channel, partial curve]"}
{"smiles": "Cc1cc(COc2ccccc2OCCN2CCN(C)CC2)no1", "activity change, negative = inhibition": "inactive: 1.85%"}
{"smiles": "CN(C1CCCCC1)S(=O)(=O)c1ccc(NC(=O)c2ccc(Br)o2)cc1", "Potency": "inconclusive: 8.91 µM [quencher, side channel, partial curve]"}
{"smiles": "CN(C)c1ccc(NC(=O)c2ccncc2)c2ccccc12", "Potency": "inconclusive: 31.6 µM [quencher, side channel, single point]"}
{"smiles": "Cc1cccc(CN2CCN(CC(=O)N3CCCC3)C2=O)c1", "activity change, negative = inhibition": "inactive: 1.74%"}
{"smiles": "COc1cc2c3nnc(-c4ccccc4)c-3cn(Cc3ccc(F)cc3)c2cc1OC", "Potency": "inconclusive: 20 µM [quencher, side channel, single point]"}
{"smiles": "CCN(CC)c1ccc(/C=C(\\C#N)C(N)=O)cc1", "Potency": "inconclusive: 12.6 µM [quencher, side channel, partial curve]"}
{"smiles": "O=C1CC(=O)N(Cc2ccco2)C(=S)N1", "activity change, negative = inhibition": "inactive: -3.09%"}
{"smiles": "Cc1cc(=O)oc2cc(OS(C)(=O)=O)ccc12", "Potency": "inconclusive: 6.31 µM [fluorescent, side channel, single point]"}
{"smiles": "CN(C)/C=N/c1ncc(C(=O)c2ccc3ccccc3c2)s1", "Potency": "inconclusive: 12.6 µM [quencher, partial curve]"}
{"smiles": "COCCNC(=O)/C(C#N)=C\\c1ccc(CNS(=O)(=O)c2ccccc2)o1", "Potency": "inconclusive: 25.1 µM [quencher, side channel, partial curve]"}
{"smiles": "CCn1c(O)c(N=NC(=O)CNC(=O)Cc2ccccc2)c2ccccc21", "Potency": "inconclusive: 8.91 µM [quencher, partial curve]"}
{"smiles": "CC(C)NC(=S)N/N=C/c1ccccc1[N+](=O)[O-]", "Potency": "inconclusive: 28.2 µM [quencher, single point]"}
{"smiles": "CC(C)C(=O)NC(C)C(c1cccs1)N1CCOCC1", "note": "(stereo unspecified)", "Potency": "inconclusive: 14.1 µM [quencher, side channel, single point]"}
{"smiles": "COc1ccc(-c2cc(CNS(=O)(=O)c3ccc(NC(C)=O)cc3)on2)cc1", "activity change, negative = inhibition": "inactive: -2.33%"}
{"smiles": "Cc1ccc(NCC(=O)c2ccc([N+](=O)[O-])cc2)cc1", "Potency": "inconclusive: 12.6 µM [quencher, side channel, partial curve]"}
{"smiles": "CC1CCCCN1C(=O)CSc1nnc2c(n1)[nH]c1ccccc12", "note": "(stereo unspecified)", "Potency": "inconclusive: 14.1 µM [quencher, side channel, partial curve]"}
{"smiles": "COC(=O)c1nc2ccc(N3CCOCC3)cc2c(C)c1C(=O)OC", "Potency": "inconclusive: 28.2 µM [quencher, side channel, single point]"}
{"smiles": "COc1cc([N+](=O)[O-])ccc1N", "Potency": "inconclusive: 22.4 µM [quencher, side channel, single point]"}
{"smiles": "O=C(CCCCCNc1nc(=S)[nH]c2ccccc12)NCc1ccccc1Cl", "activity change, negative = inhibition": "inactive: 2.62%"}
{"smiles": "CC(=O)N(C)C1=C(O)c2ccccc2C(=O)C1=O", "Potency": "inconclusive: 14.1 µM [quencher, side channel, partial curve]"}
{"smiles": "O=C(c1sc2cc([N+](=O)[O-])ccc2c1Cl)N1CCOCC1", "Potency": "inconclusive: 3.55 µM [quencher, side channel, partial curve, poor fit]"}
{"smiles": "CC(=O)Nc1ccc(N2C(=O)c3cccc4c(O)ccc(c34)C2=O)cc1", "Potency": "inconclusive: 20 µM [quencher, side channel, partial curve]"}
{"smiles": "C=CCn1c(-c2cccc([N+](=O)[O-])c2)n[nH]c1=S", "Potency": "inconclusive: 11.2 µM [quencher, side channel, partial curve]"}
{"smiles": "COCC(=O)NCc1ccc2c(c1)cc(C)n2C", "Potency": "inconclusive: 35.5 µM [quencher, side channel, single point]"}
{"smiles": "COc1ccc(C(=O)Nc2ccccc2N2CCOCC2)cc1[N+](=O)[O-]", "Potency": "inconclusive: 12.6 µM [quencher, side channel, partial curve]"}
{"smiles": "O=C(Nc1ccc([N+](=O)[O-])cc1)c1ccccc1", "Potency": "inconclusive: 2.82 µM [quencher, side channel, full curve]"}
{"smiles": "O=c1c([N+](=O)[O-])cc(C(F)(F)F)cn1Cc1cccc(Cl)c1", "Potency": "inconclusive: 3.55 µM [quencher, side channel, full curve]"}
{"smiles": "C/C(=N\\NC(=O)c1ccccc1)c1ccc2c(c1)OCO2", "activity change, negative = inhibition": "inactive: 5.11%"}
{"smiles": "FC(F)(F)c1ccc(/C=N/n2c(C3CCCCC3)n[nH]c2=S)cc1", "activity change, negative = inhibition": "inactive: -1.37%"}
{"smiles": "O=[N+]([O-])c1cncc([N+](=O)[O-])c1Nc1ccccc1Cl", "Potency": "inconclusive: 12.6 µM [quencher, side channel, partial curve]"}
{"smiles": "CC(C)CCN1C(=O)c2ccc(C(=O)NCc3ccco3)cc2C1=O", "Potency": "inconclusive: 14.1 µM [quencher, side channel, partial curve]"}
{"smiles": "CC(NC(=O)c1cccnc1)C(c1ccccc1)N1CCN(C)CC1", "note": "(stereo unspecified)", "Potency": "inconclusive: 6.31 µM [fluorescent, side channel, single point]"}
{"smiles": "Fc1ccc(C2CC(c3ccco3)=Nc3ccccc3S2)cc1", "note": "(stereo unspecified)", "activity change, negative = inhibition": "inactive: 3.24%"}
{"smiles": "Cc1c(NC(=O)CN2c3cccc4cccc(c34)S2(=O)=O)c(=O)n(-c2ccccc2)n1C", "Potency": "inconclusive: 17.8 µM [quencher, side channel, single point]"}
